# Laboratory results: paper PMC4336329 (PLoS ONE, 2015)
# Screen size: about 310,000 compounds; about 2,200 (0.71%) showed an effect of 50% or more. The effect is printed as a negative number. Some of the results follow.
# Target: human ether-à-go-go-related gene (hERG) potassium channel (human, UniProt Q12809)
# Experiment: primary screen, population patch clamp on CHO cells stably expressing hERG
# human ether-à-go-go-related gene (hERG) potassium channel, sequence (Q12809 whole entry, looked up): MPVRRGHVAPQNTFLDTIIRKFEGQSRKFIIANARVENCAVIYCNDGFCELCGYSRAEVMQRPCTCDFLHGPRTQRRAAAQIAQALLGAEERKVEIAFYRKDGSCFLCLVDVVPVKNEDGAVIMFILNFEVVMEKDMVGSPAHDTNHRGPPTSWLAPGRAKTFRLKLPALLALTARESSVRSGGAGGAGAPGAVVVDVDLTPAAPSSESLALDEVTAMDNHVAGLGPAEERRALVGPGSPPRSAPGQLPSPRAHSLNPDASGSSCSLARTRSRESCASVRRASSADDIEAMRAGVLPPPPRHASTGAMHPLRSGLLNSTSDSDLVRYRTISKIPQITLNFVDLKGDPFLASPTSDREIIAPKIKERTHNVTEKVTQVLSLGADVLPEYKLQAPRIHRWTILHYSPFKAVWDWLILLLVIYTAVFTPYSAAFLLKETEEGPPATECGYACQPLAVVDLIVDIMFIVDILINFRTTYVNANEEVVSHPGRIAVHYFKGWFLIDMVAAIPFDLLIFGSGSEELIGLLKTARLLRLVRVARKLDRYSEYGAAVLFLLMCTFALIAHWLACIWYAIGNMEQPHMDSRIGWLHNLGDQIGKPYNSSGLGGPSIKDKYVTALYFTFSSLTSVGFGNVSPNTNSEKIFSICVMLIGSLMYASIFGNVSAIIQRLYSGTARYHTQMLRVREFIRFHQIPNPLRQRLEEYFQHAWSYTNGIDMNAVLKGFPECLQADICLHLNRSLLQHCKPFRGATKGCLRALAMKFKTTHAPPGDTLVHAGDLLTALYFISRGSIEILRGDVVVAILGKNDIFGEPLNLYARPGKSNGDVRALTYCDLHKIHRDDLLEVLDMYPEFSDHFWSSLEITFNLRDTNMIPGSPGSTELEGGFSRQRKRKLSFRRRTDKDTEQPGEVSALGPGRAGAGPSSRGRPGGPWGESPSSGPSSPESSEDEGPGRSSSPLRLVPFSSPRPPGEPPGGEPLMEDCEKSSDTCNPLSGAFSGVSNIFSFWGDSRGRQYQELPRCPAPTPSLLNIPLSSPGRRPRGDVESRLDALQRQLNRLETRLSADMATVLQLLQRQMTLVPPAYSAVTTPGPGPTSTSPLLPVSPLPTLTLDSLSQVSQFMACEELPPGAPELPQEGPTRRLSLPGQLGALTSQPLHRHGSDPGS
row,SMILES,"hERG current change (%, negative = inhibition) at 1uM [%]"
1,COc1ccc(Cl)cc1Nc1nc(-c2sc(NC(=O)c3ccccc3)nc2C)cs1,13.1
2,O=C(Nc1cccc(Cl)c1N1CCCC1)c1ccco1,16.2
3,O=C(O)c1ccc(NCc2cccc(Br)c2)cc1,12.8
4,COC(=O)CSc1nnc(-c2ccc(OC)c(OC)c2)o1,6.76
5,NC(=O)NC(=O)CN1c2cccc3cccc(c23)S1(=O)=O,10.1
6,O=C(N/N=C/c1ccco1)c1ccc(N2CCCC2=O)cc1,11.2
7,CCOC(=O)N1CCN(C(=O)c2ccc(CS(=O)Cc3ccc(C)cc3)o2)CC1 (centres unmarked),6.04
8,CC(=O)c1ccc(S(=O)(=O)NCCC(=O)OCC(=O)NCCc2ccccc2)cc1,11.6
9,O=C(CCC(=O)N(CC(=O)NC1CCCC1)c1cccc(F)c1)Nc1nccs1,-6.62
10,CCOC1=C/C(=C/c2c(N)n3nc(CC(=O)N4CCCCC4)sc3nc2=O)C=CC1=O,14.6
11,CC1=C(C(=O)OC2CCCCC2)C(c2ccc(C)o2)C2=C(CC(C)(C)CC2=O)N1 (centres unmarked),0.211
12,CCC(=O)c1ccc(O)c(OC)c1,3.34
13,Cc1ccc2c(c1)N(CC(=O)NCc1cccnc1)C(=O)CO2,10.8
14,OCCNc1nc2ccccc2n1CC(O)c1ccccc1 (centres unmarked),6.32
15,CN(C)C(=N)c1n[nH]nc1SCc1ccccc1.Cl,16.4
16,Cc1ccc(OCCN2CCN(c3nc(NCc4ccco4)c4ccccc4n3)CC2)cc1,2.8
17,O=C(Cc1c[nH]c2ccccc12)N1CCc2ccccc21,7.11
18,Cc1cc(C(=O)NCc2cccnc2)n(-c2ccccc2)n1,-5.81
19,CCn1c(SCC(=O)N2CCOCC2)nc2c(c1=O)SC(C)C2 (centres unmarked),17
20,COC(=O)c1ccccc1NC(=O)Nc1ccc(C)cn1,14.2
21,CCOc1ccc2[nH]c(=O)c(CN(CCO)C(=O)c3ccccc3F)cc2c1,3.3
22,COc1cc(OC)c2c(-c3ccccc3)cc(=O)oc2c1C(CCN1CCCC1)c1ccc2c(c1)OCO2 (centres unmarked),-12

row,SMILES,"hERG current change (%, negative = inhibition) at 1uM [%]"
1,Cc1c(NC(=O)C2CCCN2C(=O)c2cccs2)c(=O)n(-c2ccccc2)n1C (centres unmarked),13.5
2,CCOC(=O)CN(C(=O)CSc1nnc2c(n1)[nH]c1ccccc12)c1ccccc1,5.75
3,CN(Cc1cnc2nc(N)nc(N)c2n1)c1ccc(C(=O)N[C@@H](CCC(=O)O)C(=O)O)cc1.O,12.6
4,O=C1C2C(C(=O)N1Cc1ccco1)C1C=CC2C12CC2 (centres unmarked),14
5,CC(C)(C)c1ccc(OCCC(=O)Nc2cccc(S(=O)(=O)N3CCOCC3)c2)cc1,5.64
6,COc1ccc(OCC(O)CNC(=O)/C=C/c2cccc([N+](=O)[O-])c2)cc1 (centres unmarked),14.8
7,C=CCSc1nc(C)cc(C(=O)OCC)c1C#N,3.77
8,Cc1cccc(N(CC(=O)NC2CCCC2)C(=O)c2nsc(Cl)c2Cl)c1C,17.4
9,COc1ccc(C2(C)NC(=O)N(CC(=O)c3ccc4c(c3)OCO4)C2=O)cc1 (centres unmarked),10.2
10,O=C(NC1CC1)c1cc2c(s1)CS(=O)(=O)C2,13.8
11,COc1ccc2nc(NC(=O)c3ccccc3C(=O)O)sc2c1,15.2
12,Cc1cc(C(=O)OCC(=O)Nc2c(F)cccc2F)c(C)n1-c1ccccc1,13.7
13,CC(=O)C1=C(c2ccccc2)NC(=O)NC1c1ccc(O)c(Cl)c1 (centres unmarked),12.9
14,C1COCCO1.Nc1c(C(=O)O)sc2nc(-c3ccccc3)cc(-c3ccccc3)c12,5.14
15,CCN(C(=O)c1cccc(S(=O)(=O)N(C)C)c1)C12CC3CC(CC(C3)C1)C2,14.6
16,NC(=O)COC(=O)CCSc1ccc(Cl)cc1,13.5
17,COc1ccc(N/C(N)=N/c2nc(CSc3ccc(C)cc3)cc(=O)[nH]2)cc1,-10.7
18,COc1ccc(OC)c([C@@H](O)[C@H](C)NC(C)(C)C)c1.Cl,12.5
19,CCN(CC)c1ccc(/C=N/NC(=O)CNC(=O)c2cccnc2)cc1,12
20,CCC(=O)N1CCN(c2ccc(Cl)cc2NC(=O)c2cccc([N+](=O)[O-])c2)CC1,-32
21,O=C(CN1CCOCC1)NCCNC(=O)CN1CCOCC1,7.31
22,CS(=O)(=O)N1c2ccccc2[C@]2(Br)C[C@H]3C(=O)N[C@@H](Cc4ccccc4)C(=O)N3[C@H]12,6.11
